Laboratory results reported in PubChem BioAssay (Tox21).
Several values for one entry are separate records, joined by “and”; a condition that tells them apart may be missing. Equal values may be shown once. Inconclusive results, whose numbers are uncertain, are shown with a selection of clear calls. A potency beside an inconclusive call is a rough fit, not a confirmed value. The source holds several records for some structures; these can differ, active in one and inactive in another. Activity calls are given as the source filed them. Calls come from the whole dose curve; as a rule, active = well fitted curve in the direction sought with a large enough effect in the repeat runs; inconclusive = weak or mixed curves; inactive = no such curve, though single readings can be large; an effect the other way counts as inactive or inconclusive.

Experiment: qHTS assay for identifying genotoxic compounds that show differential cytotoxicity against isogenic chicken DT40 cell lines with known DNA damage response pathways - Rev3 mutant cell line (AID 743014); note: nearly all actives have a fitted effect of over 55% in size
Details: chicken DT40 Rev3-/- viability, CellTiter-Glo, 40 h; activity, negative = cytotoxicity: at 68.4 µM (top of the series) unless noted
% is set by controls: 0 for no effect and ±100 for the full control effect; potency is the fitted concentration of half-maximal effect; tags give direction and shape of the fitted curve.

Row | SMILES | Potency | activity, negative = cytotoxicity
1 | CCCCOCCOCCOCc1cc2c(cc1CCC)OCO2 | inconclusive: 21.9 µM [cytotoxic] | 
2 | CC[C@H](c1ccc(O)cc1)[C@@H](CC)c1ccc(O)cc1 | active: 10.1 µM and active: 13.7 µM | 
3 | COc1ccc(OC)c(C(O)CNC(=O)CN)c1 (centres undefined) | inconclusive: 2.85 µM [cytotoxic, partial curve, poor fit] | inconclusive: -1.99%
4 | CC(=O)Nc1ccc(C(=O)CCl)cc1 | inconclusive: 68.9 µM [cytotoxic, single point] | 
5 | O=C1c2c(O)ccc(O)c2C(=O)c2c(NCCNCCO)ccc(NCCNCCO)c21 | active: 0.0101 µM | 

Experiment: qHTS assay for identifying genotoxic compounds that show differential cytotoxicity against isogenic chicken DT40 cell lines with known DNA damage response pathways - Rad54/Ku70 mutant cell line (AID 743015); note: nearly all actives have a fitted effect of over 60% in size
Details: DT40 Rad54/Ku70 mutant viability, CellTiter-Glo, 40 h; activity change, negative = cytotoxicity: at 66.8 µM (top of the series) unless noted

Row | SMILES | Potency | activity change, negative = cytotoxicity
6 | O=C(c1ccc(O)cc1)c1ccc(O)cc1O | inconclusive: 69.3 µM [cytotoxic, single point] and inconclusive: 68.6 µM [cytotoxic, single point] | 
7 | O=C(O[C@@H]1Cc2c(O)cc(O)cc2O[C@@H]1c1cc(O)c(O)c(O)c1)c1cc(O)c(O)c(O)c1 | inconclusive: 68.7 µM [cytotoxic, single point] and inconclusive: 66.1 µM [cytotoxic] | 
8 | CCCCNS(=O)(=O)c1ccccc1 | inactive | 
9 | CCOC(=O)O[C@H](C)OC(=O)c1ccc2c(c1)cc(C(=O)NC1CCN(C(C)C)CC1)n2Cc1cc(-c2ccc(Cl)s2)on1 | active: 11.4 µM | 
10 | c1ccc2c(c1)-c1cccc3c1c-2cc1ccccc13 | inactive | 
11 | CCN(CC)CCOC(=O)C1(C2CCCCC2)CCCCC1 | active: 23.7 µM | 
12 | CCCCC(CC)COC(=O)CC(C(=O)OCC(CC)CCCC)S(=O)(=O)O (centres undefined) | inconclusive: 33.5 µM [cytotoxic] and inconclusive: 66 µM [cytotoxic] | 
13 | Cc1ccc(O)c(C(C)(C)C)c1 | inconclusive: 68.6 µM [cytotoxic] | 
14 | COc1cc(/C=C/C(=O)CC(=O)/C=C/c2ccc(O)c(OC)c2)ccc1O | active: 10.6 µM and active: 26.6 µM and active: 10.9 µM | 
15 | CCN(CC)c1ccc2c(C)cc(=O)oc2c1 | active: 61.6 µM and inconclusive: 77 µM [cytotoxic, single point] | 
16 | SCCCCCCCCS | active: 54.5 µM | 
17 | CC(C)OC(=O)C(C)(C)Oc1ccc(C(=O)c2ccc(Cl)cc2)cc1 | inconclusive: 33.5 µM [cytotoxic, single point] | 
18 | CN(C)c1cccc(O)c1 | inconclusive: 61.1 µM [cytotoxic, single point] | 
19 | O=c1n(CC2CO2)c(=O)n(CC2CO2)c(=O)n1CC1CO1 (centres undefined) | inconclusive: 0.192 µM [cytotoxic, full curve, poor fit] | 
20 | CCCCCCOC(=O)c1ccc(O)cc1 | inconclusive: 54.5 µM [cytotoxic, partial curve, poor fit] | 
21 | CC(C)Oc1ccc2c(=O)c(-c3ccccc3)coc2c1 | inconclusive: 11.9 µM [cytotoxic, single point] | 
22 | O=C(OCC1CCC2OC2C1)C1CCC2OC2C1 (centres undefined) | inactive and inconclusive: 54.5 µM [cytotoxic, partial curve] | 
23 | Clc1ccc2n[nH]nc2c1 | inconclusive: 68.6 µM [cytotoxic, partial curve, poor fit] | 
24 | NC(N)=NC(N)=NCCc1ccccc1 | active: 17.1 µM [middle of 4 runs] | 
25 | CN(C)CCN(Cc1cccs1)c1ccccn1 | inconclusive: 68.2 µM [cytotoxic, single point] | 
26 | CCn1c2ccccc2c2cc(N)ccc21 | inconclusive: 27 µM [cytotoxic] and inconclusive: 68.6 µM [cytotoxic, single point] | 
27 | CC1CCCNC1 (centres undefined) | inconclusive: 67.1 µM [cytotoxic, single point] | 
28 | CCN(CC)CCOC(=O)c1ccc(N)cc1 | inconclusive: 57.5 µM [cytotoxic, single point] | 
29 | CCCCCCCCCCOCC(O)CN (centres undefined) | active: 7.5 µM | 
30 | CCCCOCCOCCOCc1cc2c(cc1CCC)OCO2 | inconclusive: 33.5 µM [cytotoxic] | 
31 | CC[C@H](c1ccc(O)cc1)[C@@H](CC)c1ccc(O)cc1 | inconclusive: 12.7 µM [cytotoxic, partial curve] and active: 19.3 µM | 
32 | CC(=O)Nc1ccc(C(=O)CCl)cc1 | inconclusive: 68.9 µM [cytotoxic, single point] | 
33 | O=C1c2c(O)ccc(O)c2C(=O)c2c(NCCNCCO)ccc(NCCNCCO)c21 |  | inconclusive: -92.8% [at 30.7 µM]

Experiment: qHTS assay to identify small molecule antagonists of the androgen receptor (AR) signaling pathway - cell viability counter screen (AID 743033; note: nearly all actives have a fitted effect of over 45% in size)
Details: AR-bla HEK293 viability, CellTiter-Glo luminescence, 16 h; series mostly up to 58.5 µM

Row | SMILES | Potency
34 | O=C(O[C@@H]1Cc2c(O)cc(O)cc2O[C@@H]1c1cc(O)c(O)c(O)c1)c1cc(O)c(O)c(O)c1 | inactive
35 | CCOC(=O)O[C@H](C)OC(=O)c1ccc2c(c1)cc(C(=O)NC1CCN(C(C)C)CC1)n2Cc1cc(-c2ccc(Cl)s2)on1 | active: 7.25 µM
36 | c1ccc2c(c1)-c1cccc3c1c-2cc1ccccc13 | inactive
37 | CCN(CC)CCOC(=O)C1(C2CCCCC2)CCCCC1 | inconclusive: 15.1 µM [cytotoxic, partial curve]
38 | CCCCC(CC)COC(=O)CC(C(=O)OCC(CC)CCCC)S(=O)(=O)O (centres undefined) | inconclusive: 21.3 µM [cytotoxic, single point] and inconclusive: 52.9 µM [cytotoxic, single point] and inconclusive: 13.8 µM [cytotoxic, partial curve, poor fit]
39 | Cc1ccc(O)c(C(C)(C)C)c1 | active: 15.5 µM and inconclusive: 61.7 µM [cytotoxic, single point]
40 | COc1cc(/C=C/C(=O)CC(=O)/C=C/c2ccc(O)c(OC)c2)ccc1O | active: 43.9 µM
41 | CCN(CC)c1ccc2c(C)cc(=O)oc2c1 | inconclusive: 69.7 µM [cytotoxic, partial curve, poor fit]
42 | CC(C)OC(=O)C(C)(C)Oc1ccc(C(=O)c2ccc(Cl)cc2)cc1 | active: 43.6 µM
43 | O=c1n(CC2CO2)c(=O)n(CC2CO2)c(=O)n1CC1CO1 (centres undefined) | inactive and inconclusive: 54.9 µM [cytotoxic, single point]
44 | CCCCCCOC(=O)c1ccc(O)cc1 | inconclusive: 54.9 µM [cytotoxic, single point]
45 | NC(N)=NC(N)=NCCc1ccccc1 | inconclusive: 21.8 µM [cytotoxic, partial curve, poor fit]
46 | CN(C)CCN(Cc1cccs1)c1ccccn1 | inconclusive: 24.4 µM [cytotoxic, partial curve, poor fit]
47 | CCn1c2ccccc2c2cc(N)ccc21 | inconclusive: 4.9 µM [cytotoxic, full curve, poor fit]
48 | CC1CCCNC1 (centres undefined) | inconclusive: 53.8 µM [cytotoxic, single point]
49 | CCCCCCCCCCOCC(O)CN (centres undefined) | inactive
50 | CCCCOCCOCCOCc1cc2c(cc1CCC)OCO2 | inactive and inconclusive: 12.3 µM [cytotoxic, full curve, poor fit]
51 | CC[C@H](c1ccc(O)cc1)[C@@H](CC)c1ccc(O)cc1 | inconclusive: 43.6 µM [cytotoxic, partial curve]
52 | CC(=O)Nc1ccc(C(=O)CCl)cc1 | inconclusive: 54.9 µM [cytotoxic, single point]
53 | O=C1c2c(O)ccc(O)c2C(=O)c2c(NCCNCCO)ccc(NCCNCCO)c21 | inconclusive: 3.23 µM [cytotoxic, partial curve, poor fit]
